# Some of the results follow.
# Legend:
# HSkMC = human skeletal muscle cells; test: cytotoxicity call (relative viability < 0.9); conditions: 10 µM
# HepG2 = test: cytotoxicity call (relative viability < 0.9); conditions: 10 µM
# S. aureus RN4220 = test: growth inhibition call (relative growth <= 0.2); conditions: 50 µM
SMILES,cytotoxicity call (HSkMC),cytotoxicity call (HepG2),growth inhibition call (S. aureus RN4220)
C/C=C/c1ccc([C@@H]2[C@@H](CO)N(S(=O)(=O)Cc3ccccc3)C23CN(C(=O)C2CCOCC2)C3)cc1,inactive,inactive,inactive
Cc1noc(C)c1NC(=O)N(C)C[C@@H]1Oc2ccc(NC(=O)Nc3ccc(C(F)(F)F)cc3)cc2CC(=O)N([C@@H](C)CO)C[C@@H]1C,inactive,inactive,inactive
CCCCOCCOc1ccc(-c2ccc3c(c2)/C=C(/C(=O)Nc2ccc([S@@](=O)Cc4cncn4CCC)cc2)CCCN3CC(C)C)cc1,active,inactive,inactive
O=C(C[C@H]1CC[C@@H]2[C@H](COC[C@@H](O)CN2C(=O)c2ccccc2)O1)NCCCN1CCOCC1,inactive,inactive,inactive
C[C@@H]1CN([C@H](C)CO)C(=O)c2cc(NC(=O)Cn3cnnn3)ccc2O[C@@H]1CN(C)CC1CCCCC1,inactive,inactive,inactive
Cc1noc(C)c1NC(=O)Nc1ccc2c(c1)C(=O)N([C@@H](C)CO)C[C@@H](C)[C@H](CN(C)C(=O)C1CCCCC1)OCCCC[C@@H](C)O2,inactive,inactive,inactive
CCCCCCCCCCCCCCCC(=O)OCC(NC(=O)C(Cl)Cl)C(O)c1ccc([N+](=O)[O-])cc1 (configuration not stated),inactive,inactive,inactive
C[C@@H]1CN([C@@H](C)CO)S(=O)(=O)c2ccc(C#Cc3cccnc3)cc2O[C@@H]1CN(C)C(=O)CN(C)C,inactive,inactive,inactive
O=C(C[C@@H]1CC[C@@H]2[C@H](COC[C@@H](O)CN2S(=O)(=O)c2ccc(Cl)cc2)O1)N[C@H]1CCN(Cc2ccccc2)C1,inactive,inactive,inactive
